From the supplement of paper PMC10126150
Sequences with one replicate were seen in a single cluster, so their values are uncertain.

System: ATP
Assay: switch fluorescence ratio, 500 uM ATP over buffer (Cy3 cluster intensity, sum of 5 cycles each) (fold (ratio)); higher = stronger signal-on switching upon ATP binding; sequences stand for … in TCGTCGGCAGCGTCAGATGTGTATAAGAGACAGTTTTTTTTTTTTTTTTTTTTTTTTT…TC
Conditions: aptamer strand: ATP DNA aptamer (quencher-CACCTGGGGGAGTATTGCGGAGGAAGG + anchor), 100 nM annealed; ATP concentration: 500 uM; one replicate
Summary of the method: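 Between each of five buffer/ATP cycles, the flow-cell was stripped with NaOH and re-annealed. Each cycle imaged Cy3-labelled switching-strand clusters, annealed to 100 nM quencher-labelled ATP aptamer on a modified Illumina MiSeq flow-cell, first in selection buffer and then after 15 min with 500 uM ATP at 22 °C. The fluorescence ratio is summed target-cycle over summed buffer-cycle Cy3 intensity per cluster, averaged per switch-domain sequence, with clusters outside 100-1000 RFU excluded.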
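Further: ATP exposure 15 min at 22 °C before imaging.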

Sequence	switch fluorescence ratio
TCCAATCCGA	1.01
CAGTCCTATG	1.01
CAGCTGCTAC	5.71
GTACTGACGC	1.18
AAACAGGTTC	1.05
GGGATATTAT	0.977
GACTCATATG	1.02
CCACTCAGTT	1.04
AGCGTGAGTT	0.981
CATTTAAATG	0.999
AGGGGATAAA	0.955
GCTTCTGAA	0.999
TCCCAGGTAG	2.75
AAGCAGGTCG	1.02
TTGCTGGG	0.952
ATCCACTCTC	1.03
GCTAATTACG	1.08
TGGCCAGGA	0.978
AATCCCTAAC	1.02
CATTGTCCCT	1.02
GGGGTCTAG	1.01
TGCACGCGAC	1.58
ACTACAGGAT	1.01

Sequence	switch fluorescence ratio
AGCTGGCAAA	0.993
ACTCAGCTGA	1.07
GCTGTGATCC	1.02
TAAAAATTT	0.984
GACCACTAAC	1.19
ACGCGCGATA	1.13
TGCTGGAGTT	0.987
AATACTTAA	1.06
CTACCGTTGA	1.05
GCCGTAGGCA	0.984
GGCAAAGGT	1.17
CACTGGAGTA	1.03
TTATGCCATG	0.982
AATTTGGCGA	1.02
CCGTTTAACG	1.06
AGAATTGATG	0.976
TGTGACACTC	1.02
CTAGGACGTT	1.04
TCCGAACGTG	2.98
CGCTCAGATT	1
TTCAAATTGT	1.01
GCATGTACCT	1.28
GTATGCGAGA	0.938

Sequence	switch fluorescence ratio
CTGCGATGAC	2.89
GTTAAATGAT	0.993
TTTCAACCG	0.978
GTATACTGAC	1.26
CCCTTGAATG	1.02
GAATACCGCG	1.1
AATTGAGCGG	0.983
TCGCTACTAA	1.2
GCAGATTCGG	0.965
TTGAGTCATT	0.971
CTAACTTAAG	1.02
AATCCTGCCT	1.33
TATTTCAGCA	0.989
CTCCAGGTGG	1.58
AACCACGCGC	1.13
TACCCTCTGA	1.04
ATGTTACTGC	1.02
TGCAAACAAG	0.935
CGGCATAGCG	1.1
ATCCTTAGAA	1.02
GTGGCTAAGC	1.01
CAGGTGTCTC	1.4
ATCGACTTGA	1.02

Sequence	switch fluorescence ratio
TGCTGAATTC	0.911
ATTTGCGGCC	0.991
CGAATCTCCT	1.11
TCCCTTGATC	1.06
TGAGGGACCT	1.05
ATCTACAATT	1.04
GATCTAACTA	1
AAGAGGTAGG	0.987
GTGGCGCGGC	0.969
AAACTGGGAC	1
TGGGTCTGCA	1.04
GCCGTTAGTG	1.01
AGCGGAAAAA	0.899
GCAATTTAGG	0.997
GCAGCAAGTC	5.7
TTGGCTGAGC	1.05
GTTCAACATG	1
ATCATACAGC	1.02
GGGATAATGT	1.01
GCGCACACCT	1.17
TTTAATTCTA	0.957
ATAGAGCAGG	1.21
CTAATCGG	1.04

Sequence	switch fluorescence ratio
GCTTAGTGCG	0.949
ATTCTCGCCA	1.01
GTTAATTTGA	0.97
GTTATATTTC	0.98
CACAGTCGGC	1.07
TGTACACATG	1.01
TACACAGGGT	1.06
CTTGTTTAAG	1.03
CATTAAGCGC	0.968
GGTCATCCG	1.05
TTTACTTGCT	1.03
GGCTAGCGAT	1.03
TGATCATTT	1.01
CGTTGAAGGT	0.981
CGGTAGAGCT	0.972
CATCCTTGCT	1.11
CTGTTATATT	1.06
GGGTCCTCGT	1.06
GATCCGTGTG	0.994
GCTTCCCTTT	1.06
GTAAGCTAGG	1
ATACAAGGTC	1.06
TACGACAGTG	1.05

Sequence	switch fluorescence ratio
TATTTTCCTA	0.971
CAGTCGTGTC	1.02
TTCAGTCCTG	1
GACATTTGAC	1.04
AGGTCATTAT	1.01
AGGTTTGATA	0.998
GGTTCTGTAG	1.03
GCGACGGCAA	2.46
GAAAAACAAA	1.06
TTGTACCGGG	0.979
GAACGTAGCT	1.07
GCTTAATGTT	1
AGGTTCGGGG	1.01
CTAGGATAGC	0.986
ACCTACTTTA	1.2
GGCTTTATCC	1.02
CATCCATTAA	1.04
CATTTGTGAG	0.919
ATGTATAGTA	1.01
CGGTGAATAG	1.02
CTTTCGGTAC	2.73
CCATATACAG	1.02
CAAGTAGAAC	1.08

Sequence	switch fluorescence ratio
CGCCCTTTTT	1.03
TAGTGCATTG	0.976
CTCGGGCAAT	4.01
TTCAGTTGAA	1.01
AGTAGGGAAG	0.98
CAGTGCCCAT	1.01
ACTCAGAAAT	1.47
TCGTTGACAG	0.936
GATAGGAAGC	1.05
AGAATGCTGT	0.938
GTCATGTTTT	1
TATTAGAAT	1.01
ATCAAAGGCT	0.968
TATTTATGC	1.05
AGAGTTTAGG	0.997
TTAATACTTT	1
GAAGAGGTTC	1.08
GTGGAGTGAC	0.994
CTGGCCTACT	1.02
